Out of some 2,800 compounds screened, fewer than 10 were called active. This list was built around the results that the source calls inconclusive (neither active nor inactive); the mix of calls is not that of the screen. Calls come from the whole dose curve; as a rule, active = well fitted inhibition curve with a large enough effect; inconclusive = small, poorly fitted or top-dose-only effect; inactive = no such curve, though single readings can be large or run the other way. Where the call is inconclusive, the potency comes from a doubtful curve fit.
The compounds below were run against Metallo-beta-lactamase type 2 (Klebsiella pneumoniae) (UniProt C7C422) (assay: qHTS to identify inhibitors of the New Delhi Metallo-beta-lactamase (NDM): Nitrocefin screen against the machine-based learning selections.). Conditions: NDM-1 enzyme, nitrocefin hydrolysis, absorbance 485 nm; activity, negative = inhibition: at 38.4 µM (top of the series) unless noted.
Chain of UniProt C7C422 (C7C422 whole entry, looked up): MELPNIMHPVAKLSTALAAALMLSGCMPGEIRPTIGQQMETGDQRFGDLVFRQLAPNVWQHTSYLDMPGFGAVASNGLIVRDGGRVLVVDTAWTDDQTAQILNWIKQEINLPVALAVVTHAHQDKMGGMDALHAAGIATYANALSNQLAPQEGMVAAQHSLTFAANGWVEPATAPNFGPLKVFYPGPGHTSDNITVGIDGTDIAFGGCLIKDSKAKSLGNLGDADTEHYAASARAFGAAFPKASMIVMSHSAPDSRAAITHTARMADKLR
Description: Assay Submitter (PI): James Inglese Ph.D., Patricia Dranchak Ph.D., Mahesh Aitha Ph.D. Assay Development and Screening Technology Laboratory (ADST) National Center for Advancing Translational Sciences (NCATS), Rockville, MD National Institute of Health (NIH), Bethesda, Maryland The metallo-beta-lactamases (MBL) are a main antibiotic resistance mechanism evolved by bacteria. There is an urgent clinical need for MBL inhibitors to mitigate this growing threat. To support a machine-based learning study, qHTS has been used to experimentally test inhibitors identified by prediction tools.
PROTOCOL TABLE (as described by Inglese et al., 2007) SEQUENCE No. (e.g., 1, 2, 3, etc.); […] (e.g., enzyme, Incubation, Reagent, etc.); VALUE; DESCRIPTION Primary Screen 1; NDM-1; 4 uL of 3 nM enzyme [2 nM final] in 50 mM HEPES (pH 7.0), 1 uM […], 0.01% Tween20; Use BioRaptr to dispense into two sets of Aurora black, clear bottom high base 1536-well plates 2; Compounds; 23 nL; Use Pin Tool (Wako) to transfer DMSO control and library compounds in DMSO 3; Incubate; >30 min 4a; Reagent; 2 uL of 50 uM nitrocefin [16.7 uM final] to one set of assay plates 4b; Reagent; 2 uL of 150 uM meropenem [50 uM final] to second set of assay plates 5a; Incubate; 15 min 5b; Incubate; 30 min 6a; Detector; Absorbance at 485 nm (bandwidth = 5 nm, 25 flashes/well) on Tecan Infinity 6b; Detector; Absorbance at 300 nm (bandwidth = 5 nm, 25 flashes/well) on Tecan Infinity NOTES (numbers refer to sequence above) 1; Column 1 of each plate received assay buffer without enzyme and columns 2-48 received enzyme for a final assay concentration of 2 nM. 2; Control plate contained DMSO in columns 1, 2, 3, and 4. 3; Compound interaction with enzyme. 4; Nitrocefin and meropenem substrates were prepared in the same assay buffer as step 1 for a final assay concentration of 16.7 uM and 50 uM, respectively, and added to all wells across respective sets of assay plates. 5; Default reader settings were applied for absorbance read at 485 nm (nitrocefin) or 300 nm (meropenem), bandwidth = 5 nm, 25 flashes/well. References: Inglese J, Shamu CE, Guy RK. 2007. Reporting data from high-throughput screening of small-molecule libraries. Nat Chem Biol. doi:10.1038/nchembio0807-438 Yasgar A, Shinn P, Jadhav A, Auld D, Michael S, Zheng W, Austin CP, Inglese J, Simeonov A. 2008. Compound Management for Quantitative High-Throughput Screening. J Lab Autom 13:79 - 89. doi:10.1016/j.jala.2007.12.004
Potency is the fitted concentration of half-maximal effect; tags give direction and shape of the fitted curve.
Throughout, for activity, negative = inhibition: % of control where 0% means no effect.

Structure (SMILES)	Potency	activity, negative = inhibition
CC(C)NC(=O)CCc1cc2n(n1)CCN(Cc1cc(=O)[nH]c(=O)[nH]1)C2	inconclusive: 18.9 µM [inhibitor, partial curve]	
CC(C)NCC1(COc2ccc(C(F)(F)F)cn2)C[C@@H](O)[C@@H](O)C1 (stereo not given in full)	inconclusive: 43.3 µM [inhibitor, single point]	
COc1cccc(CN2C[C@@H]3C(C(=O)O)[C@@H]3C2)c1OCCn1ccnc1 (stereo not given in full)	inconclusive: 23.7 µM [inhibitor, single point]	
CCOC(=O)C[C@@H]1C[C@@H](C(C)C)[C@H](CNC(=O)c2ccc(C#N)cc2)C=C1C		inactive: 0.154% [at 57.5 µM]
Cc1ccc(CN2CC[C@@H](CO)N(C)c3cccnc3C2)s1		inactive: -5.46% [at 57.5 µM]
NC(=O)CCNC(=O)C1=C[C@@H](NC(=O)c2cccs2)[C@@H](O)[C@H](O)C1		inactive: 10.8% [at 57.5 µM]
O=S(=O)(NC[C@H]1O[C@@H](CO)[C@@H](O)[C@H]1N1CCOCC1)c1ccccc1	inconclusive: 27.3 µM [inhibitor, partial curve]	
O=C(NCC1(COc2cccnc2)C[C@@H](O)[C@@H](O)C1)Nc1cccnc1 (stereo not given in full)	inconclusive: 10.9 µM [inhibitor, full curve]	
c1ccc2c(c1)cnn2CCCn1ccnc1-c1cc2n(n1)CCCNC2	inconclusive: 29.9 µM [inhibitor, partial curve, poor fit]	
O=C(NCc1cc2n(n1)CCNC2)c1ccc2c(c1)ncn2CCO	inconclusive: 16.8 µM [inhibitor, partial curve]	
Cc1noc2c(-c3cccc(O)c3)cc(-c3cccs3)nc12		inactive: 1.99% [at 57.5 µM]
COc1ccccc1N1CCN([C@@H]2[C@H](O)[C@H](CO)O[C@@H]2CN(Cc2ccc(F)cc2)Cc2ccc(F)cc2)CC1	inconclusive: 21.2 µM [inhibitor, partial curve]	
CNC(=O)[C@@H](c1ccccc1OC)N1CCC[C@H]1C(=O)N1CC[C@@H](O)C1	inconclusive: 27.3 µM [inhibitor, single point]	
CCCNC(=O)N[C@@H]1C[C@H](Cn2cc(C3CC3)nn2)[C@@H](O)[C@H]1O	inconclusive: 24.3 µM [inhibitor, partial curve]	
COCCOCC1(CNC(=O)Nc2cccnc2)C[C@@H](O)[C@@H](O)C1 (stereo not given in full)	inconclusive: 30.6 µM [inhibitor, partial curve, poor fit]	
COc1ccc(OC)c(CNC(=O)CC2CCOCC2)c1		inactive: -2.81%
O=C(O)C1CNCCN(Cc2ccc(-c3nn[nH]n3)cc2)C1 (stereo not given)	inconclusive: 1.89 µM [inhibitor, full curve]	
O=C(c1ccccc1Cl)N1CCCC(c2nn(-c3ccccc3)c(=O)[nH]2)C1 (stereo not given)		inactive: -3.71%
CC1(C)CN(C(=O)c2ccccc2Oc2ccccc2)CC1(C)O (stereo not given)		inactive: 1.27%
COc1ccccc1CCC(=O)NCc1nnc2ccc(-c3ccc(C)cc3)nn12		inactive: 0.342%

Structure (SMILES)	Potency	activity, negative = inhibition
O=C(c1ccccc1)N1CCN2C(=O)N(Cc3ccccc3)C(=O)[C@H]2C1		inactive: -2.63% [at 57.5 µM]
Cn1ccc2c(C(=O)NCCc3cnc[nH]3)nc(-c3cccnc3)cc21		inactive: 0.339% [at 57.5 µM]
CC1=C[C@@H](CNC(=O)COCC(=O)O)[C@H](C(C)C)C[C@H]1Cc1nc2ccccc2n1C	inconclusive: 15.4 µM [inhibitor, full curve]	
Cc1ccc(S(=O)(=O)NC[C@H]2O[C@@H](CO)[C@@H](O)[C@H]2N2CCN(c3cccc(C(F)(F)F)c3)CC2)cc1	inconclusive: 15 µM [inhibitor, partial curve]	
Cc1nn(C)c2nc(-c3ccccn3)nc(NCc3ccc4c(c3)OCO4)c12	inconclusive: 29.9 µM [inhibitor, partial curve, poor fit]	
CN(Cc1ccc(F)cc1)c1ccc2ncc(Nc3ccc(CCO)cc3)n2n1	inconclusive: 43.3 µM [inhibitor, single point]	
c1ccc(-c2nc3ccncc3[nH]2)nc1	inconclusive: 43.3 µM [inhibitor, single point]	
O=C(O)C[C@@H]1CCN(C(=O)c2ccnc(Cl)c2)C[C@@H]1CCN1CCN(c2cccc(C(F)(F)F)c2)CC1	inconclusive: 21.2 µM [inhibitor, partial curve, poor fit]	
CC(C)C(=O)N[C@H]1[C@H](O)[C@H](O)C[C@@H]1c1cccnc1		inactive: 2.09% [at 76.7 µM]
Cc1nccn1CC(=O)N1CCC2(CC1)CNC(C(=O)O)C2 (stereo not given)	inconclusive: 23.7 µM [inhibitor, single point]	
O=C(O)c1cncc(N2CCC3(CC2)CNC(C(=O)O)C3)n1 (stereo not given)	inconclusive: 13.4 µM [inhibitor, partial curve, poor fit]	
NC(=O)C1(N2CCCCC2)CCN(Cc2cc3n(n2)CCNC3)CC1	inconclusive: 8.42 µM [inhibitor, full curve]	
CC(C)C[C@@H]1N[C@H](C(=O)NCCOc2ccccc2)Cc2c[nH]c3cccc1c23		inactive: -8.13% [at 57.5 µM]
O=C(NC[C@H]1O[C@@H](CO)[C@@H](O)[C@H]1N1CCN(c2cccc(C(F)(F)F)c2)CC1)Nc1ccc(F)cc1F	inconclusive: 29.9 µM [inhibitor, single point]	
Cc1ccc(CN2CC[C@@H]3[C@H]2C(=O)NC[C@H](CCC(=O)N2CC[C@@H](O)C2)N3C)cc1		inactive: -10.8% [at 57.5 µM]
O=C(N[C@@H]1C[C@H](Cn2cc(C3CC3)nn2)[C@@H](O)[C@H]1O)c1cncnc1	inconclusive: 27.3 µM [inhibitor, partial curve]	
COC[C@H]1CCCN1Cc1nc(C2(O)CCN(Cc3ccccc3O)CC2)cs1	inconclusive: 0.0039 µM [inhibitor, full curve]	
CC[C@@]1(C(=O)O)C[C@H](C(=O)NC(CO)CO)[C@H](c2ccc(OC)cc2)N1C	inconclusive: 18.9 µM [inhibitor, single point]	
Cc1ccc(-c2noc([C@@H]3Cc4nc[nH]c4CN3Cc3ccccc3)n2)cc1	inconclusive: 27.3 µM [inhibitor, single point]	
CC[C@H]1CN(C(=O)NC2CCCCC2)CC[C@H]1CC(=O)Nc1nccs1	inconclusive: 27.3 µM [inhibitor, partial curve]	
